According to article PMC6697746:
Results are given in words; binding and its absence hold for the method and conditions named. In cells and extracts the contact can be indirect. Some binding calls cover weakened binding; strength is not graded here.

By UniProt entry, the sequences of proteins in these tests, tags left out. Where a name states a change or a piece, a line headed by the entry shows the natural chain unless it says otherwise.
UniProt Q9UM11: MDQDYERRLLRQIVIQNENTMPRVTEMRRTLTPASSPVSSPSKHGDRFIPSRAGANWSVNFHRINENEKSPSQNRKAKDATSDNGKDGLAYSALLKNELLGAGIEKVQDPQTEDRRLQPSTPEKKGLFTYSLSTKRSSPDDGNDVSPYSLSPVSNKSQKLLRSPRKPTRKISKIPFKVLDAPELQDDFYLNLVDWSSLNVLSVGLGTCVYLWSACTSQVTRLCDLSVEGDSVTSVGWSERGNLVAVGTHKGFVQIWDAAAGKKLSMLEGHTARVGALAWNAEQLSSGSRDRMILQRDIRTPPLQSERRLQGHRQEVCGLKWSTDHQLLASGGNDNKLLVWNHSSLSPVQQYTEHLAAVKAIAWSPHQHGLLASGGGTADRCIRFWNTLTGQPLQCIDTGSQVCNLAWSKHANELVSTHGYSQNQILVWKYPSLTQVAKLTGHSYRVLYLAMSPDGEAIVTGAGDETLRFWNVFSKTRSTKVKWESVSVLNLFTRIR
UniProt O14980: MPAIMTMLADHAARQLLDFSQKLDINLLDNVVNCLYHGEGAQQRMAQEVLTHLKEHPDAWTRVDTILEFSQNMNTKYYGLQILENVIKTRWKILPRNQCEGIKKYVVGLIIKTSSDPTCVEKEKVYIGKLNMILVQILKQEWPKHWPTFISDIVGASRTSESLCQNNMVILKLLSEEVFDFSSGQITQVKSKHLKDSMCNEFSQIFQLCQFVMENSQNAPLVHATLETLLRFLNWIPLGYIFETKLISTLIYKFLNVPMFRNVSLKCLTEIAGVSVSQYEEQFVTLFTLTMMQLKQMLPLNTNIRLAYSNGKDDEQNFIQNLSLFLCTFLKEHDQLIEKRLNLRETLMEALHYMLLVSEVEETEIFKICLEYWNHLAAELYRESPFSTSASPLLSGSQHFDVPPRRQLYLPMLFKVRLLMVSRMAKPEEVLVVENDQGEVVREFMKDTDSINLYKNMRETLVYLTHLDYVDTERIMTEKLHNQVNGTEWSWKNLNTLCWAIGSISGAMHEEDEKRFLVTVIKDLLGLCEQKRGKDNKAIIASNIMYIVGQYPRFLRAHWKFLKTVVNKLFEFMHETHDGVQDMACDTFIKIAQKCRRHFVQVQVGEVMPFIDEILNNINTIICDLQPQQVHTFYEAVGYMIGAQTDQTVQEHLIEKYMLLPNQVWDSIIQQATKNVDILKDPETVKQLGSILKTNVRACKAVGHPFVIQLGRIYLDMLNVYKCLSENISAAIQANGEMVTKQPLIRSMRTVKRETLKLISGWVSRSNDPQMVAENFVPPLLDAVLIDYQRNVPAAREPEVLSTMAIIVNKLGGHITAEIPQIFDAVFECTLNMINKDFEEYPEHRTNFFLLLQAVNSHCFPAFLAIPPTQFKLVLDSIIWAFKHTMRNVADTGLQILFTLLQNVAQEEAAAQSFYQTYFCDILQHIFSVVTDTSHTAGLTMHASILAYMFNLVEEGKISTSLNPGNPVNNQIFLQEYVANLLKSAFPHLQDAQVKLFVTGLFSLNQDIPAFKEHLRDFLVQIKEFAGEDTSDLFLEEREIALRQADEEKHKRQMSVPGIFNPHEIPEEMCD
UniProt P06241: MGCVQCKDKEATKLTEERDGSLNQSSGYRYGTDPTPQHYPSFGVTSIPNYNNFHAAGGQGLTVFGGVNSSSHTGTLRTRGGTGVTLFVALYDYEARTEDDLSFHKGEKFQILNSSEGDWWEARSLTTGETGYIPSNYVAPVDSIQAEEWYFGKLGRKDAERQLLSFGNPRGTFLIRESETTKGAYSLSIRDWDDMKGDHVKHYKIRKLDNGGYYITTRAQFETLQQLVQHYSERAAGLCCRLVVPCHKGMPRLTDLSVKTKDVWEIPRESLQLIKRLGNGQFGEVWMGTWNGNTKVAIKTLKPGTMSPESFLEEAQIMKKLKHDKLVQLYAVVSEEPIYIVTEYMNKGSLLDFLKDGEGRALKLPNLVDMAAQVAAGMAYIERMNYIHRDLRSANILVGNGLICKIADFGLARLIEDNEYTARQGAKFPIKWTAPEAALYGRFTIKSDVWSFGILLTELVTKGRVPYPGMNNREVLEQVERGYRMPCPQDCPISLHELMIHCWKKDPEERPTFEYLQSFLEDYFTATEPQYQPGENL
UniProt P07947: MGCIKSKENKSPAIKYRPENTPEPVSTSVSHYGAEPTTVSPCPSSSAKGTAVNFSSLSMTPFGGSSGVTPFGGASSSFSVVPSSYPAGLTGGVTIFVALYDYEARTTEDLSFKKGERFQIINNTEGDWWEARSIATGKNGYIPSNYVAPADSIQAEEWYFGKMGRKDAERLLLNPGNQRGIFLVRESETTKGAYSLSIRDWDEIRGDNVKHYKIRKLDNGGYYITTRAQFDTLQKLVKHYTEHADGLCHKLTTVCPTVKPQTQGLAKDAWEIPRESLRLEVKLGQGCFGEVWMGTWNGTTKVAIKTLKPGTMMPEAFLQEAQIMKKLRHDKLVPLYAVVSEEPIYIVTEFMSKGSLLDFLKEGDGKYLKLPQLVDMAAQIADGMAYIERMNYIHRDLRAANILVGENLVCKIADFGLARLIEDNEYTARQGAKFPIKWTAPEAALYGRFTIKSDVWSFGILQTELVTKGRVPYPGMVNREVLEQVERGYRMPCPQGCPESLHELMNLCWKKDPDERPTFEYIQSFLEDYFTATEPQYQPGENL

Legend:
[1] = biological target: HA-Y148E-Cdh1 (stable in shCdh1-MDA-MB-231) (human) (UniProt Q9UM11); test: co-IP; anti-HA IP from shCdh1-MDA-MB-231 cells stably expressing HA-Cdh1 variants; endogenous partners detected by immunoblot
[2] = biological target: endogenous Cdh1 (human (endogenous in MCF7, MDA-MB-231, SUM159PT)) (UniProt Q9UM11); test: co-IP; endogenous proteins; anti-Cdh1 IP from lysates of MCF7, MDA-MB-231 and SUM159PT cells; cells in part treated with PDGF, sgSrc, dasatinib, PD0325901 or saracatinib
HA-Cdh1 (human) = HA-Cdh1 (human) (UniProt Q9UM11); test: co-IP; 293T cells co-transfected with Flag- and HA-tagged constructs; lysis in EBC buffer (50 mM Tris pH 7.5, 120 mM NaCl, 0.5% NP-40); agarose-conjugated antibody 3-4 h at 4 °C; four washes with NETN buffer; immunoblot
Flag-CRM1 (human) = Flag-CRM1 (human) (UniProt O14980); test: as above

binding (HA-Cdh1 (human)) | binding (Flag-CRM1 (human)) | Substance | further results
 |  | endogenous CRM1 (from UniProt O14980 1-1071) | binding [1]: binds; binding [2]: binds
no binding |  | Fyn (from UniProt P06241 1-537) | 
 | binds | HA-Cdh1 (from UniProt Q9UM11 1-496) | 
 | binds | HA-Y148E-Cdh1 (293T) (from UniProt Q9UM11 1-496) | 
no binding |  | Yes (from UniProt P07947 1-543) | 
